Data: the RNAGym collection of RNA variant scans (doi:10.1101/gad.245936.114)
This sample is rich in variants without activity.

B1: tRNA (parent)
chain: CUCUCGGUAGCCAAGUUGGUUUAAGGCGCAAGACUUUAAUUUAUCACUACGAAAUCUUGAGAUCGGGCGUUCGACUCGCCCCCGGGAGAUUUUUUCCUCGAGCAA

Variants of: B1
Assay: nonsense suppression (GFP-seq) (ratio to wild type); higher = more function; SUP4oc tRNA, yeast GFP reporter sort-seq
Outline: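 Sorted GFP/RFP bins of yeast were each Illumina-sequenced with a phred ≥30 cutoff; the cells held a genome-integrated ochre-suppressor tRNA variant from a library with ~3% random mutations, a galactose-driven GFP ochre reporter, and RFP. Culture was in raffinose/galactose medium containing 80 mg/L adenine. Nonsense suppression, termed GFPSEQ, is the median GFP/RFP of the bins weighted by each variant's estimated cell share per bin, relative to the unmutated parent tRNA, for variants reaching ≥100 reads and ≥30 cells.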

Nonsense suppression, 0.75:
CUCUCGGUAGCCAAGUUGGGGUAAGGCGCAAGACUUUAAUUUAUCACUACGAAAUCUUGAGAUCGGGCGUUCGACUCGCCCCCGGGAGAUUUUUUCCUCGAGCAA

Nonsense suppression, 0.849:
CUCUCGGUAGCCAAGUUGGGUUAAGGCGCAAGACUUUAAUUUAUCACUACGAAACCUUGAGAUCGGGCGUUCGACUCGCCCCCGGGAGAUUUUUUCCUCGAGCAA

Nonsense suppression, 1.18:
CUCUCGGUAGCCAAGUUGGGAUAAGGCGCAAGACUUUAAUUUAUCACUACGAAAUCUUGAGAUCGGGCGUUCGACUCGCCCCCGGGAGAUUUUUUCCUCGAGCAA

Nonsense suppression, ≤ 0.026:
CUCUCGGUAGCCAAGUUGGGUUAAGUCGCAAGACUUUAAUUUAUCACUACGAAAUCUUGAGAUCGGGCGUUCGACUCGCCCCCCGGAGAUUUUUUCCUCGAGCAA
CUCUCGGUAGCCAAGUUGGGUUAAGGCGCAAGACUUUAAUUUAUCACUACGAAAUCUUGAGAUCGGGCGUUCGACUCGCCCCAGGGAGAUUUUUUCCUCGAGCAA
CUCUCGGUAGCCAAGUUGGGGUAAGGCUCAAGACUUUAAUUUAUCACUACGAAAUCUUGAGACCGGGCGUUCGACUCGCCGCCGUGAGAUUUUUUCCUCGAGCAA
CUCUCGGUAGCCAAGUUGGUAUCAGGCGCAAGACUUUAAUUUAUCACUACGAAAUCUUGAGAUCGGGCGUUCGACUCGCACCCGGGAGAUUUUUUCCUCGAGCAA
CUCUCGGUAGCCAAGUUGGUAUCAGGCGCAAGACUUUAAUUUAUCACUACGAAAUCUUGAGAUCGGGCGUUCGACCCGCGCCCUGGAGAUUUUUUCCUCGAGCAA
CUCUCGGUAGCCAAGUUGGGUUAAGGUGCAAGACUUUAAUUUAUCACUACGAAAUCUUGAAAUCGGGCGUUCGACUCGCCCCGGGGAGAUUUUUUCCUCGAGCAA
CUCUCGGUAGCCAAGUUGGGUUAAGGCGCAAGACUUUAAUUUAUCACUACGAAAUCUUGAGAUCGGGCGUUCGUCUCGCCCCCGGGAGAUUUUUUCCUCGAGCAA
CUCUCGGUAGCCAAGUUGGGUUAAGGCGCAAGACUUUAAUUUAUCACUACGAAAUCUUGAGAUCGGGCGUUCGACUCGGCCCCGGGGGAUUUUUUCCUCGAGCAA
CUCUCGGUAGCCAAGUUGGGUUAAGGCGCAAGACUUUAAUUUAUCACUACGAAAUCUUGAGAUCGGGCGUUCGACUCGGCCCCGGGUGAUUUUUUCCUCGAGCAA
CUCUCGGUAGCCAAGUUGGGUUAAGGCGCAAGUCUUUAAUUUAUCACUACGAAAUCUUGAGAUCGGGCGCUCGACUCGCCCCCGGGAGAUUUUUUCCUCGAGCAA
CUCUCGGUAGCCAAGUUGGGUUAAGGCGAAAGACUUUAAUUUAUCACUACGAAAUCUUGAGAUCGGGCGUUCGACUCACCCCGGGGAGAUUUUUUCCUCGAGCAA
CUCUCGGUAGCCAAGUUGGGUUAAGGCGCAAGACUUUAAUUUAUCACUACGAAAUCUUGAGAUCGGGCGUUCGACUCGCCCCCGAGCGAUUUUUUCCUCGAGCAA
CUCUCGGUAGCCAAGUUGGGUUAAGGCGCAACACUUUAAUUUAUCACUACGAAAUCUUGAGUUCGGGCGUUCGACUCGCCCCCGGGAGAUUUUUUCCUCGAGCAA
CUCUCGGUAGCCAAGUUGGGUUAAGGCGAAACACUUUAAUUUAUCACUACGAAAUCUUGCGAUCGGGCGUUCGACUCGCCCCCCGGAGAUUUUUUCCUCGAGCAA
CUCUCGGUAGCCAAGUUGGGUUAAGGCGCAAGACUUUAAUUUAUCACUACGAAAUCUUGAGAUCCGGCGUCCGACUCGCCCCCGGGAGAUUUUUUCCUCGAGCAA
CUCUCGGUAGCCAAGUUGGGUUAAGGCGCAAGACUUUAAUUUAUCACUACGAAAUCUUGAGAUCAGGCAUUCGACUCGCCCCCGGGAGAUUUUUUCCUCGAGCAA
CUCUCGGUAGCCAAGUUGGGUUAAGGCGCAAGACUUUAAUUUAUCACUACGAAAUCUUGAAAUCGGUGGUUCGACUCGCCCCCGGGAGAUUUUUUCCUCGAGCAA
CUCUCGGUAGCCAAGUUGGGUUAAGGCGCAAGACUUUAAUUUAUCACUACGAAAUCUUGAGAUCGGGCGUUCGACUCGACCCCGGGAGAUUUUUUCCUCGAGCAA
CUCUCGGUAGCCAAGUUGGGUUAAGGCGCAAGACUUUAAUUUAUCACUACGAAAUCAUCAGAUCGGGCGUUCGACUCGCCCCCGUGAGAUUUUUUCCUCGAGCAA
CUCUCGGUAGCCAAGUUGGGUUAAGGCGCAAGACUUUAAUUUAUCACUACGAAAUCUUGAGAUCGGGCGUUCGACUCGCCCCAGGGAGCUUUUUUCCUCGAGCAA
CUCUCGGUAGCCAAGUUGGGUUAAGGCGCAAGACAUUAAUUUAUCACUACGAAAUCUUGAGAUCGGGCGUUCGACUCGCCCCCGGGAGAUUUUUUCCUCGAGCAA
CUCUCGGUAGCCAAGUUGGGUUAAGGCUCUAGACUUUAAUUUAUCACUACGAAAUCUUGAGAUCGGGCGUUCGACUCGCCCCCGGGAGAUUUUUUCCUCGAGCAA
CUCUCGGUAGCCAAGUUGGGUUAAGGCGCAAGACUUUAAUUUAUCACUACGAAAUCUUGAGAUCGGGCGUUCGACUCGGCCCCAGGAGAUUUUUUCCUCGAGCAA

Nonsense suppression, 0.0902:
CUCUCGGUAGCCAAGUUGGGUUAAGGCGCAAGUCUUUAAUUUAUCACUACGAAAUCUUGAGAUCGGGCGUUCGACUCGCCCCCGGGAGAUUUUUUCCUCGAGCAA
